Assay results published in PubChem BioAssay AID488969 (Vanderbilt High Throughput Screening Facility, 2010).
Whole data set: some 110,000 compounds, median “z-score” near -0.1, cut for the highest 2% near 2. This is one part of the list. Calls of active or inactive are those of the source.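 The calls were made as follows: active = z-score in the third read window above 3 or below -3; inactive = the rest.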

target: Metabotropic glutamate receptor 8 (Rattus norvegicus) (UniProt P70579); experiment: rat mGluR8 modulators via GIRK flux, primary screen, cell-based, thallium flux, HTS (AID 488969); conditions: HEK293 rat mGluR8, GIRK (G protein-gated inwardly rectifying potassium channel) thallium flux, FluoZin2; at 10 µM; stronger effect = higher value; submaximal glutamate (EC20) added with thallium
Chain of UniProt P70579 (P70579 whole entry, looked up): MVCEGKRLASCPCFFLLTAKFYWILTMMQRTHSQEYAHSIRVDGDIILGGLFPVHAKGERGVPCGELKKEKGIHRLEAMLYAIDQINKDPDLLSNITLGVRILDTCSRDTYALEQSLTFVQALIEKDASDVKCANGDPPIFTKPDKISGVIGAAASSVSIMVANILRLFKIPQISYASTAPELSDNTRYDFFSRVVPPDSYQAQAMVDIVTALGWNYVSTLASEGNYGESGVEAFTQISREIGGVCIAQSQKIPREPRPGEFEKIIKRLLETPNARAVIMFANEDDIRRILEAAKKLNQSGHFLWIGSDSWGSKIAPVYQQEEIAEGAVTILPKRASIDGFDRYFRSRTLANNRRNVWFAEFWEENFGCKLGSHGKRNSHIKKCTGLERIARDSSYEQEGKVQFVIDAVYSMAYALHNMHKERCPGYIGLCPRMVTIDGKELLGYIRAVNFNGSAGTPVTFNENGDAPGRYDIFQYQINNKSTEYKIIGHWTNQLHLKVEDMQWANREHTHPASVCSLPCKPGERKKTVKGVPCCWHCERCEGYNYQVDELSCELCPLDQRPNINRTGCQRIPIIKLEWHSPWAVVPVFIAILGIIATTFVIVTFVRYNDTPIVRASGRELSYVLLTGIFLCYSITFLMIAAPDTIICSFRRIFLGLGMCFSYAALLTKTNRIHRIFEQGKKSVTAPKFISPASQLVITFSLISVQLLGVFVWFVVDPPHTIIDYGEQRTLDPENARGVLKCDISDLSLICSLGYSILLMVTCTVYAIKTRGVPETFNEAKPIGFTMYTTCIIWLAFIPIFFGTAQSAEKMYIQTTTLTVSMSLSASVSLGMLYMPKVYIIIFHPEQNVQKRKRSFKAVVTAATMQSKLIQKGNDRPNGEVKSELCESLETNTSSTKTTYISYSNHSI

SMILES	z-score
Cn1nnnc1NCc1c(F)cccc1Cl	1
COc1ccc(Cl)cc1NC(=O)CSc1nnc(COc2ccccc2)n1N	-0.455
O=C(Nc1nc(-c2ccccn2)cs1)C1CC(=O)N(c2ccc3c(c2)OCCO3)C1 (stereo not given)	-0.0555
O=C(Nc1nc2ccccc2s1)C1CC(=O)N(c2ccc(Br)cc2)C1 (stereo not given)	0.374
Cc1cccc(Cc2cnc(N3C(=N)SC(c4ccccc4)C3=O)s2)c1 (stereo not given)	-2.12
O=C1Nc2ccccc2/C1=C\c1cccn1-c1ccc(OC(F)(F)F)cc1	2.45
CCCCn1c(N)c(N(CCOC)C(=O)CCc2ccc(OC)cc2)c(=O)[nH]c1=O	0.0193
CC(=O)c1nn(-c2ccc(Br)cc2)cc1C(=O)c1ccco1	-0.914
C=CCNCCOCCOc1ccc(C)cc1[N+](=O)[O-]	0.169
CCOc1ccc(N(C(=O)Nc2ccccc2)C2=NCCC2)cc1	-0.321
CCOC(=O)C1CCN(C(=O)C2CC(=O)N(c3ccc(C)cc3)C2)CC1 (stereo not given)	-0.384
COc1ccc(C(=O)CSc2nnc(CNc3ccc(C)cc3C)o2)cc1	-0.0883
O=S(=O)(c1ccccc1)N1CCN(C(=S)Nc2ccc(F)cc2)CC1	active: 3.37
Cc1ccnc(NC(=O)CCC2CCCCC2)c1	0.386
O=C(O)c1cccc(NC(=O)c2ccc3c(c2)C(=O)N(CC2CCCO2)C3=O)c1 (stereo not given)	1.47
CCOC(=O)CSc1nc2c(sc(=S)n2CCc2ccccc2)c(=O)n1Cc1ccco1	-0.162
Cc1ccc([N+](=O)[O-])cc1-c1[nH]c(-c2ccc(O)c(O)c2)nc1-c1ccccc1	-0.37
COc1cc2c3c(c1)C1(C(=O)N3C(C)(C)C=C2C)C(C#N)=C(N)Oc2cc(O)ccc21 (stereo not given)	0.429
O=C(CN1C(=O)c2ccccc2C1=O)N1CCN(C(=O)c2ccco2)CC1	-0.0354
O=C(NCc1ccccc1Cl)c1cnc2n(c1=O)CCS2	-0.0692
O=C(Nc1cccc(-c2nnc(-c3ccccc3)o2)c1)C1CCCCC1	-0.0325
Cc1ccccc1CN1CCCNC1=O	0.218
CCOC(=O)CC1C(=O)NCCN1C(=O)COc1ccc(Br)cc1C (stereo not given)	-0.651
O=C(O)c1cccc(NS(=O)(=O)/C=C/c2ccccc2)c1	-0.0762
COC(=O)c1ccc[n+](CC(=O)c2ccc(Br)cc2)c1	0.198
CN(Cc1nc2ccccc2n1C)S(C)(=O)=O	0.318
O=C(CNS(=O)(=O)c1ccccc1Br)OCC(=O)N1CCc2ccccc21	-0.676
COc1ccc(O)c(/C=N/NC(=S)Nc2cccc(S(=O)(=O)N(C)C)c2)c1	0.0404

SMILES	z-score
O=C(C(NS(=O)(=O)c1cccs1)c1ccccc1)N1CCN(c2ccccc2F)CC1 (stereo not given)	-0.171
Cc1nn(-c2ccccc2)c(N)c1C1(O)C(=O)N(C(C)C)c2ccccc21 (stereo not given)	0.371
Cc1ccc(SCc2nnc(N)s2)cc1	0.0236
O=C(O)c1ccc(NS(=O)(=O)c2ccc(Cl)cc2)cc1	-0.0545
CC(C)NC(=O)c1ccccc1NC(=O)CN(c1ccc2c(c1)OCO2)S(C)(=O)=O	0.503
CC(NC(=O)NCCCC(=O)O)(C(F)(F)F)C(F)(F)F	-0.354
CCOCCCNCc1cccc(OC)c1	0.85
CCn1c2ccccc2c2cc(C3C(C#N)=C(C)NC(C)=C3C#N)ccc21	0.239
c1ccc(-c2noc(CSc3nnc(Cc4cccs4)n3-c3ccccc3)n2)cc1	0.888
COC(=O)c1cc(OC)c(OC)cc1NC(=O)CCC1CCCC1	0.273
O=C(COc1ccccc1)Nc1nc(-c2cccs2)cs1	2.15
Cc1cc(NC(=O)c2cccc(COc3ccc(Br)cc3)c2)no1	0.0753
Cc1ccc(-c2noc(CC(c3ccccc3)c3ccccc3)n2)cc1	-0.456
CC(C)=CCC/C(C)=C/CN(CC(C)O)CC(C)O (stereo not given)	0.219
CCn1c(CSc2nnc(-c3cccnc3)n2-c2ccccc2C)nc2cc(C(=O)O)ccc21	0.919
CCS(=O)(=O)c1ccc2oc(Nc3ccc(C(C)C)cc3)nc2c1	0.431
CCN1CCc2nc(NC(=O)c3ccc4c(c3)OCCO4)sc2C1	0.181
Cc1ccc(CNC(=O)C2CC(=O)N(c3ccc(OCC(=O)N4CCCC4)cc3)C2)cc1 (stereo not given)	-0.11
CC(=O)c1cn(CC(=O)Nc2ccccc2C)c2ccccc12	-0.744
Cc1ccc(C)c(NC2=NCC(=O)N2C2CCCCC2)c1	-0.773
O=C(CC1CCCCC1)Nc1ccccc1-c1ccccc1	-0.225
Cc1cc(NC(=O)CCCC(=O)NCc2cccs2)no1	0.538
Fc1ccc(Nc2cccc3nccnc23)cc1	0.914
CCc1c(C)nc2c(OC)cccc2c1SCCC(=O)O	-0.422
CCn1c(Cc2ccc(OC)cc2)nnc1SCC(=O)N1CCN(c2ccccc2)CC1	0.352
C/C(=C\C(=O)c1ccc(C)o1)Nc1ccc2c(c1)OCO2	-0.339
O=C(CCS(=O)(=O)c1cccs1)Nc1ccc(C(=O)NCc2ccc(F)cc2)cc1	0.349
